# Test results as given in PubChem BioAssay AID1030 (National Center for Advancing Translational Sciences (NCATS), 2008).
# The campaign covered roughly 220,000 compounds. About 16,000 (7.3%) were called active. Inconclusive means that the source gave no clear call. Such entries were picked first, then a sample of the others. The call rests on the fitted dose curve; in most records, active means well fitted inhibition curve with a large enough effect (not every such curve was filed as active); inconclusive means small, poorly fitted or top-dose-only effect, or another doubt; inactive means no such curve, though single readings can be large or run the other way. Potencies of inconclusive entries are left out as doubtful fits.
# Target: Aldehyde dehydrogenase 1A1 (Homo sapiens) (UniProt P00352)
# UniProt P00352, sequence (P00352 whole entry, looked up): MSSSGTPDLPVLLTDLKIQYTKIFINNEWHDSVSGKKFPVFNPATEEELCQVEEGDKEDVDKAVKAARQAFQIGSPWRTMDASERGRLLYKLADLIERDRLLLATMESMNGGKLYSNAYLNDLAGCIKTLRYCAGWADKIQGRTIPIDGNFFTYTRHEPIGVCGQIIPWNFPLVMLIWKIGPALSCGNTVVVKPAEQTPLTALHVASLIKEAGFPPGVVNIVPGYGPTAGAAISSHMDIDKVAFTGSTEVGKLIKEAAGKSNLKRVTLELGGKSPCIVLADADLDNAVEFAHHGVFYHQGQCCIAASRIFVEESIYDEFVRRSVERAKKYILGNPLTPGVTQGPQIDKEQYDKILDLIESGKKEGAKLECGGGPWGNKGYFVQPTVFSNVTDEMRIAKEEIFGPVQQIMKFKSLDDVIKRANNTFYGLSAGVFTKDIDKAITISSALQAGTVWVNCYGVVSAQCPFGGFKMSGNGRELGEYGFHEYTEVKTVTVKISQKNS
# Test: qHTS Assay for Inhibitors of Aldehyde Dehydrogenase 1 (ALDH1A1);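 on activity, negative = inhibition: plate controls were no enzyme wells and a reference inhibitor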
# Conditions: Purified ALDH1A1, NADH fluorescence, propionaldehyde substrate; series mostly up to 75.3 µM; activity, negative = inhibition: at the top concentration
# Potency means the concentration at half of the fitted maximal effect; tags describe the fitted curve by direction and shape.
SMILES,"activity, negative = inhibition",Potency
COc1ccc(NC2CC(=O)N(CCc3ccccc3)C2=O)cc1 (stereo unspecified),inactive: -12.6%,
Cc1c(Br)c(O)c(Br)c2sc(=O)oc12,,"inconclusive [inhibitor, single point]"
Cc1ccccc1N=Cc1cccc(O)c1O,,active: 5.01 µM
CCCCc1nc(NCCN)c(C#N)c2c1CSC(C)(C)C2,,"inconclusive [inhibitor, single point]"
C/C(CC(=O)Nc1ccccc1Br)=N\NC(=O)C(=O)N1CCCC1,,"inconclusive [inhibitor, single point]"
CC(c1ccccc1)C1CC(=O)N(Cc2ccccc2)C1=O (stereo unspecified),inactive: -4%,
CCC(C)(C)n1nnnc1C(c1ccc(F)cc1)N1CCC(C(N)=O)CC1 (stereo unspecified),,"inconclusive [inhibitor, single point]"
Cn1c(NCc2c(O)ccc3ccccc23)nc2ccccc21,,"inconclusive [inhibitor, partial curve]"
COc1ccc(NC(=O)c2nn(C34CC5CC(CC(C5)C3)C4)cc2[N+](=O)[O-])cc1,,active: 0.282 µM
CCN(CC)CCNc1ncnc2c1[nH]c1ccc(OC)cc12,,"inconclusive [inhibitor, partial curve]"
CCc1nnc(NC(=O)C(=O)NCCOC(=O)c2ccccc2Cl)s1,,"inconclusive [inhibitor, single point]"
COc1ccc(NC(=O)C(c2cc3c(cc2[N+](=O)[O-])OCO3)N(C)Cc2ccccc2)cc1 (stereo unspecified),,"inconclusive [inhibitor, single point]"
COc1ccc(OC)c(-c2cc(C(=O)NCc3cccs3)no2)c1,,"inconclusive [inhibitor, partial curve]"
CN(C)/C=C/C(=O)c1ccc(Cl)c([N+](=O)[O-])c1,,"inconclusive [inhibitor, partial curve]"
O=C(O)C1Cc2[nH]cnc2C(c2cccc([N+](=O)[O-])c2)N1 (stereo unspecified),,"inconclusive [inhibitor, single point]"
CN(C(=O)COC(=O)c1ccc(=O)n(Cc2ccccc2)n1)c1ccccc1,inactive: 7.64%,
COc1ccc(C(=O)N2CCC[C@@]3(CCN(C)C3)C2)cc1,inactive: -7.63%,
Cc1[nH]c(=O)c(C(=O)/C=C/c2ccccc2F)c2c1CCCC2,inactive: -3.65%,
Cc1nc(Nc2ccccc2)sc1C,,active: 15.8 µM
CC1Cc2cc(/C(O)=C3/C(=O)C(=O)N(CCN4CCOCC4)C3c3cccc(Cl)c3)ccc2O1 (stereo unspecified),,active: 11.2 µM
O=C(Nc1cc(S(=O)(=O)N2CCOCC2)ccc1N1CCOCC1)c1ccc(S(=O)(=O)N2CCCCC2)cc1,,"inconclusive [inhibitor, partial curve]"
CC1(C)CC(NNCCC#N)=CC(=[N+]2CCCC2)C1,,"inconclusive [inhibitor, single point]"
O=C(NCCN1CCOCC1)c1cnn2c(-c3ccccc3)cc(-c3ccccc3)nc12,,"inconclusive [inhibitor, single point]"

SMILES,"activity, negative = inhibition",Potency
Clc1cccc(C2CCN(Cc3nc(CC4CC4)no3)C2)c1 (stereo unspecified),,"inconclusive [inhibitor, single point]"
COc1ccccc1CCNC(=O)CSc1nc(-c2ccco2)cc(C(F)(F)F)n1,,"inconclusive [inhibitor, single point]"
O=[N+]([O-])c1ccccc1/C=N/n1c(COc2ccccc2)n[nH]c1=S,,active: 15.8 µM
CCN(CC)S(=O)(=O)c1ccc(NC(=O)CCC2CCCCC2)cc1,,"inconclusive [inhibitor, partial curve]"
CCOC(=O)c1c(C)c(C(=O)N2CCCCCC2)c(C)n1CC,inactive: 0.0914%,
C/C(Cn1cnc([N+](=O)[O-])n1)=N/NC(=O)COc1c(Cl)cc(Cl)cc1Cl,,"inconclusive [inhibitor, single point]"
CCNC(=O)COC(=O)c1cc(S(=O)(=O)N2CCCc3ccccc32)ccc1Cl,inactive: -7.71%,
CCn1c(SCC(=O)Nc2cccc(C)c2)nc2c(c1=O)SC(C)C2 (stereo unspecified),,active: 20 µM
O=[N+]([O-])c1ccc(C[n+]2ccc(Cc3ccccc3)cc2)cc1,,active: 25.1 µM
CCOC(=O)c1c(-c2ccc(C)cc2)csc1NC(=O)CCN1CCOCC1,,"inconclusive [inhibitor, single point]"
CCCN(C(=O)c1ccco1)c1nnc(-c2ccncc2)s1,,"inconclusive [inhibitor, single point]"
Cc1cc(-c2csc(N)n2)c(C)n1CCC(C)C,,"inconclusive [inhibitor, partial curve]"
Cc1cc2oc(=O)cc(CSc3nc(N)cc(N)n3)c2cc1C,,"inconclusive [inhibitor, single point]"
CC(=O)N1CCC2(CC1)CC(=O)c1cc(OCC(=O)NCc3ccco3)ccc1O2,,"inconclusive [inhibitor, partial curve]"
CN(C)S(=O)(=O)c1ccc(C(=O)OCC(=O)NCc2ccco2)cc1,,active: 15 µM
CCOc1ccc(NC(=O)CS(=O)(=O)c2cn(C)c3ccccc23)cc1,,"inconclusive [inhibitor, partial curve, poor fit]"
CC(C(=O)O)c1ccc(N2Cc3ccccc3C2=O)cc1 (stereo unspecified),,inactive
CC(C)CC(OC(=O)c1nsc(Cl)c1Cl)C(=O)NCc1cccs1 (stereo unspecified),,"inconclusive [inhibitor, single point]"
O=C(Cc1cccs1)Nc1ccc(S(=O)(=O)Nc2ncccn2)cc1,,"inconclusive [inhibitor, single point]"
COC(=O)c1c(C)nc2c(c(SC)nn2-c2ccccc2)c1N,,"inconclusive [inhibitor, single point]"
CCCOc1ccc([C@@H]2C3CN(C(=O)OCC)CC=C3C(C#N)=C(N)C2(C#N)C#N)cc1OC (stereo partly specified),inactive: -15.2%,
O=C(O)c1cccc(NC(=O)c2cc(-c3cccc(Cl)c3)nc3ccccc23)c1,inactive: -11.2%,
O=C1c2cccnc2C(=O)N1Cc1ccc(Cl)cc1,inactive: -13%,
